Results taken from a collection of fitness landscapes (doi:10.1126/science.1257360).
This is one part of the list.

B1: PhoQ; a variant is named by its letters at X, in order, P23837 (parent)
chain: MKKLLRLFFPLSLRVRFLLATAAVVLVLSLAYGMVALIGYSVSFDKTTFRLLRGESNLFYTLAKWENNKLHVELPENIDKQSPTMTLIYDENGQLLWAQRDVPWLMKMIQPDWLKSNGFHEIEADVNDTSLLLSGDHSIQQQLQEVREDDDDAEMTHSVAVNVYPATSRMPKLTIVVVDTIPVELKSSYMVWSWFIYVLSANLLLVIPLLWVAAWWSLRPIEALAKEVRELEEHNRELLNPATTRELTSLVRNLNRLLKSERERYDKYRTTLTDLTHSLKTPLXXLQXXLRSLRSEKMSVSDAEPVMLEQISRISQQIGYYLHRASMRGGTLLSRELHPVAPLLDNLTSALNKVYQRKGVNISLDISPEISFVGEQNDFVEVMGNVLDNACKYCLEFVEISARQTDEHLYIVVEDDGPGIPLSKREVIFDRGQRVDTLRPGQGVGLAVAREITEQYEGKIVAGESMLGGARMEVIFGRQHSAPKDE

Variants of: B1
Test: enrichment ratio after two sorts for PhoP signalling (ratio (wild type AVST 3.29)); higher = more functional
Details: with PhoP (E. coli)

Variant | enrichment ratio
KTTA | ≤ 0.25
HKEN | ≤ 0.25
QLHI | ≤ 0.25
WWSK | ≤ 0.25
VPGV | ≤ 0.25
RYNL | ≤ 0.25
FGRP | ≤ 0.25
VNVF | 0.841
GWQV | ≤ 0.25
VVSK | ≤ 0.25
RPVI | ≤ 0.25
NMPW | ≤ 0.25
ATPT | ≤ 0.25
PHGD | ≤ 0.25
GWFY | ≤ 0.25
WGWQ | ≤ 0.25
GLQL | ≤ 0.25
ALWA | ≤ 0.25
HDQV | ≤ 0.25
FHSQ | ≤ 0.25
IPEA | ≤ 0.25
NIPP | ≤ 0.25
IMRP | ≤ 0.25
WTKY | ≤ 0.25
HAFF | ≤ 0.25

Variant | enrichment ratio
IGTA | ≤ 0.25
KFRV | ≤ 0.25
WTFE | ≤ 0.25
IRCE | ≤ 0.25
HYPP | ≤ 0.25
QLDI | ≤ 0.25
FDDC | ≤ 0.25
VCHI | ≤ 0.25
PFCC | ≤ 0.25
IGLL | 5.51
LLMS | ≤ 0.25
ARWD | ≤ 0.25
RFDW | ≤ 0.25
CSYA | ≤ 0.25
PQYL | ≤ 0.25
RLCH | ≤ 0.25
RVHM | ≤ 0.25
HFDE | ≤ 0.25
IAMC | ≤ 0.25
SWGQ | ≤ 0.25
DPYW | ≤ 0.25
LACE | ≤ 0.25
QREK | ≤ 0.25
KVHD | ≤ 0.25
KKEV | ≤ 0.25

Variant | enrichment ratio
YQIY | ≤ 0.25
LSFN | ≤ 0.25
KCQS | ≤ 0.25
MKDH | ≤ 0.25
PSMR | ≤ 0.25
QPRQ | ≤ 0.25
AEFF | 1.23
NIAT | ≤ 0.25
DWLW | ≤ 0.25
VCRI | ≤ 0.25
AMHP | ≤ 0.25
RYGE | ≤ 0.25
SNDF | ≤ 0.25
KVAG | ≤ 0.25
DGPD | ≤ 0.25
HYAK | ≤ 0.25
WPDQ | ≤ 0.25
LRHE | ≤ 0.25
PNHG | ≤ 0.25
IAWG | ≤ 0.25
LDHN | 3.73
RPIY | ≤ 0.25
GIVQ | 2.03
PCLC | ≤ 0.25
FEKQ | ≤ 0.25

Variant | enrichment ratio
HTAH | ≤ 0.25
QSNR | ≤ 0.25
ETKP | ≤ 0.25
LMDQ | ≤ 0.25
IIFY | ≤ 0.25
YCEG | ≤ 0.25
KKVK | ≤ 0.25
YHGF | ≤ 0.25
YKYL | 0.524
PRSR | ≤ 0.25
IWWQ | ≤ 0.25
TTCC | 11.5
WWRL | ≤ 0.25
KDRS | ≤ 0.25
HSSC | ≤ 0.25
TPLP | ≤ 0.25
YYPW | ≤ 0.25
WHDL | ≤ 0.25
IMQI | ≤ 0.25
EGDD | ≤ 0.25
HPYS | ≤ 0.25
SDYM | ≤ 0.25
GKCN | ≤ 0.25
QVDD | ≤ 0.25
KNIK | ≤ 0.25

Variant | enrichment ratio
ICQS | ≤ 0.25
HFMV | ≤ 0.25
SLHI | ≤ 0.25
TQQY | 15.1
VMGL | ≤ 0.25
RICQ | ≤ 0.25
NSSS | ≤ 0.25
LYSQ | ≤ 0.25
VEFD | ≤ 0.25
MKRD | ≤ 0.25
HPDN | ≤ 0.25
IIYP | ≤ 0.25
LGNE | ≤ 0.25
FIML | 1.84
YDLN | ≤ 0.25
MQQY | ≤ 0.25
HHKN | ≤ 0.25
KGCG | ≤ 0.25
GVGG | ≤ 0.25
NRHH | ≤ 0.25
KMPY | ≤ 0.25
FCDR | ≤ 0.25
AGQT | ≤ 0.25
YDEV | ≤ 0.25
SRSH | ≤ 0.25

Variant | enrichment ratio
NYEA | ≤ 0.25
INHQ | ≤ 0.25
LIHF | ≤ 0.25
YMDK | ≤ 0.25
WFPR | ≤ 0.25
YQKH | ≤ 0.25
IKQI | ≤ 0.25
ACDL | ≤ 0.25
LMFN | ≤ 0.25
YCHL | ≤ 0.25
QQSF | ≤ 0.25
KHQK | ≤ 0.25
FQFI | ≤ 0.25
QAGD | ≤ 0.25
NFMK | ≤ 0.25
GCLP | 0.401
RTIF | ≤ 0.25
GYCP | ≤ 0.25
QHFF | ≤ 0.25
QNAM | ≤ 0.25
ATCA | 5.9
ERTL | ≤ 0.25
GEYS | ≤ 0.25
EQVN | ≤ 0.25
ACMT | 10.1

Variant | enrichment ratio
FREH | ≤ 0.25
ECEY | ≤ 0.25
NHWK | ≤ 0.25
EATW | ≤ 0.25
QPNG | ≤ 0.25
LWSQ | ≤ 0.25
HRMR | ≤ 0.25
LTDH | ≤ 0.25
HMTQ | ≤ 0.25
EINR | ≤ 0.25
QMQF | ≤ 0.25
WRPY | ≤ 0.25
QRTK | ≤ 0.25
IDVK | 0.353
VVHF | ≤ 0.25
SCFG | ≤ 0.25
TCGK | ≤ 0.25
IRGN | ≤ 0.25
PPRW | ≤ 0.25
YVIS | ≤ 0.25
SWPC | ≤ 0.25
KMQY | ≤ 0.25
VRWY | ≤ 0.25
QLEL | ≤ 0.25
DHEL | ≤ 0.25

Variant | enrichment ratio
VWAR | ≤ 0.25
VFGG | ≤ 0.25
HKYQ | ≤ 0.25
VECL | 2.59
GKFI | 0.807
WSRQ | ≤ 0.25
TLCW | ≤ 0.25
EQTW | ≤ 0.25
PLFP | ≤ 0.25
QMDH | 15
LLIH | ≤ 0.25
TSHE | 5.88
NQWR | ≤ 0.25
IVSM | ≤ 0.25
WSAG | ≤ 0.25
KEQS | ≤ 0.25
PVGS | ≤ 0.25
NQPG | ≤ 0.25
VKMD | ≤ 0.25
VSWP | ≤ 0.25
